Experimental data as given in publication PMC4336329 (PLoS ONE, 2015).
Hit rate of the full screen: of about 310,000 compounds, about 14,000 (4.5%) showed an effect of 50% or more. The effect is printed as a negative number. This is one part of the list.

target: human ether-à-go-go-related gene (hERG) potassium channel (human, UniProt Q12809); assay: primary screen, population patch clamp on CHO cells stably expressing hERG
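Also: peak tail current of the secondary pulse compared with the same well before compound.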

human ether-à-go-go-related gene (hERG) potassium channel, sequence (Q12809 whole entry, looked up): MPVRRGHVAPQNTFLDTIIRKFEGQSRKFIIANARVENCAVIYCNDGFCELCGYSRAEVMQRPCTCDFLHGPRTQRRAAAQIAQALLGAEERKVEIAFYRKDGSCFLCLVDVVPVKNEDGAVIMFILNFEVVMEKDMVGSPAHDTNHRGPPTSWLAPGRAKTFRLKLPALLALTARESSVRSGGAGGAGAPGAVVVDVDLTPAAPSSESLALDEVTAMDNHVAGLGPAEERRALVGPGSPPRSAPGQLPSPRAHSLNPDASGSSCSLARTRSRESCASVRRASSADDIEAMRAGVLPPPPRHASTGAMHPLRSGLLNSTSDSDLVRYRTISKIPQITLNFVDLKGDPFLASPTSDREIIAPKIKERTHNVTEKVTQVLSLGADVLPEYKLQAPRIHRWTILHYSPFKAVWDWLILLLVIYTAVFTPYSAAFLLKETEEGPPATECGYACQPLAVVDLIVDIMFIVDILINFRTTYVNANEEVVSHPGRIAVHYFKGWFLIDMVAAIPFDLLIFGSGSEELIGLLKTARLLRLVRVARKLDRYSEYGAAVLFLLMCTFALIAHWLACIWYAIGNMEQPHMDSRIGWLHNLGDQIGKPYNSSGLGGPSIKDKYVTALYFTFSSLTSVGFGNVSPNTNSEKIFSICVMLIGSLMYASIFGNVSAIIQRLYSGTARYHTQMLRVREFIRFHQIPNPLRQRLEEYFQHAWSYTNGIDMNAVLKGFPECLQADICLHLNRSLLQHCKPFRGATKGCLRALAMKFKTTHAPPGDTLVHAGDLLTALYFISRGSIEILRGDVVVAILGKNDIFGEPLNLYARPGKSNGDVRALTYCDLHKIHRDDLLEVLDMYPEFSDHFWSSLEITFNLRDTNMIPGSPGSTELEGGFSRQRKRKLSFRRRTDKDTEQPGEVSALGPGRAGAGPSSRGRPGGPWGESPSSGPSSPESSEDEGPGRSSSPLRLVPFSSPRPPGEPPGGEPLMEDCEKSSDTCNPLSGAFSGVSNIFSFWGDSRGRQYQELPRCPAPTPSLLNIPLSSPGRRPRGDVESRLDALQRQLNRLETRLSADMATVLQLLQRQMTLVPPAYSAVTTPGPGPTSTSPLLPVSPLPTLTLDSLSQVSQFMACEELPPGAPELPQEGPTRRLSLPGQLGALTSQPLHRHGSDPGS

First: Cn1c(O)c(C=Nc2cccc(C(F)(F)F)c2)c(=O)n(C)c1=O
Second: CC(=O)c1cccc(N=C2C(=O)Nc3ccccc32)c1
The “hERG current change (%, negative = inhibition) at 10uM” value of the first is lower: -4.28% for the first, -4.18% for the second.

First: CCOc1ccc(C(=O)NC(C(=O)NCC(c2cccs2)N(C)C)C(C)C)cc1 (centres unmarked)
Second: CCOc1ccccc1NC(=O)c1ccc(S(=O)(=O)N(C)c2ccccc2)cc1
The “hERG current change (%, negative = inhibition) at 10uM” value of the first is lower: -19.8% for the first, 0.368% for the second.

Going from `CC(OC(=O)C1=Cc2ccccc2OC1)C(=O)NC(C)(C)C` (centres unmarked) to `COC(=O)Cn1c(=O)cnc2ccccc21`, the “hERG current change (%, negative = inhibition) at 10uM” value falls from 32.4% to -2.96%.

Compared with `O=C(NCCCn1ccnc1)/C(=C/c1cccnc1)NC(=O)c1ccco1`, `COc1ccc(-c2nc(SCc3ccccc3)n(C(=O)c3ccco3)n2)cc1` is higher in “hERG current change (%, negative = inhibition) at 10uM” value: 4.25% for the first, 26.6% for the second.

Going from `S=c1[nH]nc(-c2cc(-c3ccco3)[nH]n2)n1-c1ccccc1` to `Cc1cc(C)n(S(=O)(=O)c2ccc3ccccc3c2)n1`, the “hERG current change (%, negative = inhibition) at 10uM” value falls from 12.3% to -10.3%.

Compared with `O=S(=O)(NCc1ccccn1)c1ccccn1`, `O=C(CCS(=O)(=O)c1cccc2nonc12)NCCc1ccccc1` is lower in “hERG current change (%, negative = inhibition) at 10uM” value: 5.09% for the first, -16.7% for the second.

First: C/C(=N\Nc1cccc([N+](=O)[O-])c1)c1ccccc1O
Second: C/C(CC(=O)Nc1ccc(Cl)c(C(F)(F)F)c1)=N\NC(=O)c1ccccc1O
The “hERG current change (%, negative = inhibition) at 10uM” value of the first is higher: 12.6% for the first, -14.4% for the second.

Compared with `C=CCSc1nnc(C)n1-c1ccc(Cl)cc1`, `Cc1ccc(NC(=O)CSc2nncn2N)cc1C` is higher in “hERG current change (%, negative = inhibition) at 10uM” value: 2.53% for the first, 10.6% for the second.

First: Cc1c(C=Nc2ccc(S(=O)(=O)CCO)cc2)c(O)[nH]c(=O)c1C#N
Second: Cc1ccc(NC(=S)Nc2ccc(S(=O)(=O)Nc3ncccn3)cc2)c(C)c1
The “hERG current change (%, negative = inhibition) at 10uM” value of the first is higher: 18.9% for the first, 4.23% for the second.

First: Cc1ccc(-n2nc3c(=O)n(CCCC(=O)N4CCCCC4)nc(C)c3c2C)cc1
Second: Cc1ccc(C(=O)Nc2cc(-c3ccn[nH]3)c(C)n(N)c2=O)cc1
The “hERG current change (%, negative = inhibition) at 10uM” value of the first is lower: -10.3% for the first, 8.42% for the second.

Going from `CCCN1CCc2c(sc(NC(=O)Cc3ccc(F)cc3)c2C(N)=O)C1.Cl` to `NS(=O)(=O)c1ccc(CCNC(=O)COC(=O)C2CCCN2C(=O)c2cccs2)cc1` (centres unmarked), the “hERG current change (%, negative = inhibition) at 10uM” value rises from -38.3% to 6.4%.

Compared with `COc1ccc([N+](=O)[O-])c(OC)c1C(=O)NC(=O)Nc1c(F)cc(F)cc1F`, `CC(Sc1nnc(-c2ccco2)n1C)C(=O)Nc1nccs1` (centres unmarked) is lower in “hERG current change (%, negative = inhibition) at 10uM” value: 10.1% for the first, -21.1% for the second.

Going from `c1cncc(CNC2=NCCC2)c1` to `CC(=O)c1c(C)c2c(n1CCN(C)C)CCCC2.Cl`, the “hERG current change (%, negative = inhibition) at 10uM” value falls from 16.2% to -4.72%.
